Assay results taken from PubChem BioAssay AID1345083 (National Center for Advancing Translational Sciences (NCATS), 2018).
About 6,200 (6.6%) of roughly 94,000 compounds were called active. The inconclusive results got no clear call from the source; some entries with a clear call stand among them for comparison. The call rests on the fitted dose curve; in most records, active means well fitted inhibition curve with a large enough effect; inconclusive means small, poorly fitted or top-dose-only effect; inactive means flat fitted curve, though single readings scatter. A potency beside an inconclusive call is a rough fit, not a confirmed value.

assay: Cytotoxic Profiling in HEK 293 Cell Line of Diverse Libraries Using Quantitative High-Throughput Screening; conditions: HEK 293 viability, ATP luminescence (CellTiter-Glo), 48-72 h; series mostly up to 115 µM; further: nearly all actives have a fitted effect of over 60% in size
Summary of the method: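 HEK 293 cells at 250 cells/well were exposed to compounds by pintool transfer for 48 or 72 hr at 37 degree Celsius, 5% CO2. Viability was read as ATP-coupled luminescence with CellTiter-Glo after 10 min at room temperature.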
Potency means the concentration at half of the fitted maximal effect; tags describe the fitted curve by direction and shape.

Q: For `COc1ccc(Cl)cc1NC(=O)CCC1CCCN(C(=O)CCc2scnc2C)C1` (centres undefined), which Potency is on record?
A: The Potency was inconclusive: 39.8 µM [inhibitor, partial curve].

Q: Which Potency does the source give for `N#Cc1cccc(NC(=S)N[C@H]2CO[C@H]3[C@@H]2OC[C@@H]3n2nnnc2Oc2ccccc2)c1` here?
A: The Potency was inconclusive: 50.1 µM [inhibitor, partial curve].

Q: Which Potency does the source give for `Cc1ccc(-c2nc(CNC(=O)[C@@H]3C[C@@H](O)CN3)[nH]c2-c2ccccn2)cc1` here?
A: The Potency was inconclusive: 89.1 µM [inhibitor, single point].

Q: With `O=C1NC(=NC2CCCCC2)C2(CCCN(Cc3ccsc3)C2)N1c1cc(F)cc(F)c1` (centres undefined) as the compound, how does the Potency read?
A: Its Potency is inconclusive: 56.2 µM [inhibitor, partial curve, poor fit].

Q: Which Potency does the source give for `COC(=O)c1ccc2nc(CO[C@H]3CN(Cc4ccc(C(F)(F)F)cc4)C[C@H]3F)[nH]c2c1` here?
A: Its Potency is active: 50.1 µM.

Q: For `C[S+](=O)([O-])Nc1cccc(-c2nc(N3CCOCC3)cc3c2CN(CC2CC2)C3=O)c1`, which Potency is on record?
A: The Potency was “inactive”.

Q: For `Cn1ncc2c(C(=O)Nc3cccnc3)cc(-c3ccc(C(F)(F)F)cc3)nc21`, which Potency is on record?
A: Its Potency is “inactive”.

Q: With `COc1ccccc1Cn1c(=O)c(C(=O)N2CCN(C(=O)Nc3ccc(Cl)cc3)CC2)nc2cccnc21` as the compound, how does the Potency read?
A: The Potency was inconclusive: 31.6 µM [inhibitor, full curve].

Q: Which Potency does the source give for `O=C1NCC2(CCCN(C(=O)c3cnc4c(O)cccn4c3=O)C2)O1` (centres undefined) here?
A: The Potency was inconclusive: 39.8 µM [inhibitor, single point].

Q: For `Cc1cc(CNC(=O)Cc2nonc2C)c2[nH]c(-c3ccccc3)c(C)c2c1`, which Potency is on record?
A: Its Potency is inconclusive: 50.1 µM [inhibitor, partial curve, poor fit].

Q: Which Potency does the source give for `CN(C)C(=O)c1ccc2oc(-c3ccnc(Cl)c3)nc2c1` here?
A: The Potency was inconclusive: 8.91 µM [inhibitor, full curve, poor fit].

Q: With `CC(=O)NC1(C)CCN(Cc2ccc(-c3cccc(Cl)c3)cc2)C1` (centres undefined) as the compound, how does the Potency read?
A: Its Potency is active: 89.1 µM.

Q: With `CS(=O)(=O)Nc1ccc(C2(C(=O)NCc3ccccc3F)CCCCC2)cc1` as the compound, how does the Potency read?
A: The Potency was inconclusive: 56.2 µM [inhibitor, partial curve, poor fit].

Q: For `Cc1nc(CCNC(=O)C(C)(C)C)no1`, which Potency is on record?
A: The Potency was “inactive”.

Q: Which Potency does the source give for `CN(C)C(=O)c1ccc(-c2ccc3ncn(-c4ccc(F)cc4F)c(=O)c3n2)cc1` here?
A: The Potency was inconclusive: 100 µM [inhibitor, partial curve].

Q: Which Potency does the source give for `O=C([C@@H]1C[C@H](Oc2ccccc2)CN1C(=O)CCC1CCCC1)N1CCCC1` here?
A: The Potency was “inactive”.

Q: With `O=C(C1CC1)N1CCC2(C1)C(=O)N(CCc1ccccc1)c1ccccc12` (centres undefined) as the compound, how does the Potency read?
A: The Potency was inconclusive: 50.1 µM [inhibitor, partial curve, poor fit].

Q: Which Potency does the source give for `Cc1cnc(NC(=O)c2ccc3c(c2)OCCN(Cc2ncccn2)C3)s1` here?
A: The Potency was inconclusive: 100 µM [inhibitor, partial curve].

Q: With `Cc1nccn1CCNC(=O)CCC[C@H]1NC[C@@H]2C[C@H]1CN(Cc1ccccc1)C2` as the compound, how does the Potency read?
A: The Potency was “inactive”.

Q: With `CC(C)CN(Cc1nnc2cc(-c3nc(-c4ccccc4)no3)ccn12)CC(C)C` as the compound, how does the Potency read?
A: The Potency was “inactive”.

Q: For `O=C(c1cnccn1)N1CCC(N2C(=O)C(O)C23CCCCC3)CC1` (centres undefined), which Potency is on record?
A: The Potency was inconclusive: 89.1 µM [inhibitor, partial curve, poor fit].

Q: With `CCOC(=O)C1(Cc2ccccc2C)CCCN(Cc2nccn2CC)C1` (centres undefined) as the compound, how does the Potency read?
A: The Potency was inconclusive: 35.5 µM [inhibitor, full curve, poor fit].

Q: With `Cc1nc(-c2ccc(F)cc2)n(Cc2nc(-c3ccc(OC(C)C)cc3)oc2C)c(=O)c1CCO` as the compound, how does the Potency read?
A: Its Potency is “inactive”.

Q: For `COc1cccc(CC(=O)N2CCC3(CC2)NC(=O)N(c2ccc(F)cc2)N3)c1`, which Potency is on record?
A: The Potency was inconclusive: 28.2 µM [inhibitor, full curve].

Q: For `CC(=O)Nc1ccc(-c2nnc3n2CCN(C(=O)C2CCCC2)C3)cc1`, which Potency is on record?
A: The Potency was “inactive”.

Q: With `O=c1[nH]c(N2CCOCC2)nc2c1CCN(Cc1cc(Cl)ccc1F)CC2` as the compound, how does the Potency read?
A: Its Potency is inconclusive: 89.1 µM [inhibitor, single point].

Q: With `O=C(NCCN[S+](=O)([O-])c1ccccc1)c1ccc(-c2cccc(C(F)(F)F)c2)cc1` as the compound, how does the Potency read?
A: Its Potency is inconclusive: 39.8 µM [inhibitor, full curve, poor fit].

Q: Which Potency does the source give for `CCC(=O)N1CCC(Oc2ccc(NC(=O)NCc3ccccc3)cn2)C1` (centres undefined) here?
A: The Potency was inconclusive: 79.4 µM [inhibitor, single point].

Q: With `COC(=O)[C@H](Cc1ccc(OC)cc1)NC(=O)[C@H]1CN(S(=O)(=O)c2ccccc2)CCN1C(C)=O` as the compound, how does the Potency read?
A: Its Potency is “inactive”.

Q: Which Potency does the source give for `Cc1cc(CNC(=O)Cc2ccc(-n3cnnn3)cc2)c2[nH]c(C)c(C)c2c1` here?
A: The Potency was inconclusive: 28.2 µM [inhibitor, partial curve, poor fit].

Q: Which Potency does the source give for `Cc1cnc(C(=O)N2CCC(N3C(=O)C(OCC4CC4)C34CCOCC4)CC2)cn1` (centres undefined) here?
A: The Potency was “inactive”.

Q: Which Potency does the source give for `CCOc1ccc(CN2CCC(c3nnc(Cn4cncn4)n3C)CC2)cn1` here?
A: Its Potency is “inactive”.

Q: For `COc1ccc(C(=O)N2CCC3(CC2)NC(=O)N(c2ccccc2)N3)cc1`, which Potency is on record?
A: The Potency was inconclusive: 39.8 µM [inhibitor, partial curve, poor fit].

Q: Which Potency does the source give for `CCC(C)NC(=O)C(NC(=O)c1ccc(OC)cc1)C1CCN(C(=O)c2ccccc2C)CC1` (centres undefined) here?
A: The Potency was “inactive”.

Q: For `Cc1nn(-c2ccccc2)c2c1C(C(C)C)N(C1CN(C(=O)C(C)(C)C)C1)C2=O` (centres undefined), which Potency is on record?
A: The Potency was “inactive”.

Q: Which Potency does the source give for `CCCN[C@H]1C[C@@H](Cc2cc(COc3ccccc3)on2)C1(C)C` here?
A: The Potency was inconclusive: 100 µM [inhibitor, partial curve, poor fit].

Q: With `Cc1cc(C)c(CNC(=O)c2nc(-c3cccc(F)c3)cc3c2ccn3C)c(=O)[nH]1` as the compound, how does the Potency read?
A: Its Potency is inconclusive: 63.1 µM [inhibitor, full curve, poor fit].

Q: For `Cc1cccc(C)c1NC(=O)Cn1ccn2nc3c(c2c1=O)CCCC3`, which Potency is on record?
A: Its Potency is inconclusive: 79.4 µM [inhibitor, partial curve, poor fit].

Q: Which Potency does the source give for `CCN1CCC2(Cc3ccccc3CN(C(=O)C3CCCC3)C2)C1` (centres undefined) here?
A: The Potency was inconclusive: 100 µM [inhibitor, single point].

Q: With `Cn1cc(C(=O)N2CCn3nc(C(O)CO)cc3C2)c(=O)[nH]c1=O` (centres undefined) as the compound, how does the Potency read?
A: The Potency was inconclusive: 20 µM [inhibitor, full curve, poor fit].

Q: Which Potency does the source give for `COc1ccc(-c2cc(N3CCCN(C(=O)c4ccc(Br)cc4)CC3)n[nH]2)cc1` here?
A: The Potency was inconclusive: 44.7 µM [inhibitor, partial curve, poor fit].

Q: With `Cn1ncc2c(C(=O)Nc3ccc(F)cc3)cc(-c3ccc(C(F)(F)F)cc3)nc21` as the compound, how does the Potency read?
A: Its Potency is “inactive”.

Q: With `CC1=C[C@@H](CN(C)CCc2ccccn2)[C@H](C(C)C)C[C@H]1Cc1nnc(-c2ccccc2)o1` as the compound, how does the Potency read?
A: Its Potency is inconclusive: 50.1 µM [inhibitor, partial curve, poor fit].

Q: For `C[S+](=O)([O-])N1Cc2ccccc2CC2(CCCN2CC2CCCC2)C1` (centres undefined), which Potency is on record?
A: Its Potency is inconclusive: 79.4 µM [inhibitor, partial curve, poor fit].

Q: For `O=C(Cc1cccc(Cl)c1)N1CCCC(n2cc(-c3nc(-c4ccccc4)no3)nn2)C1` (centres undefined), which Potency is on record?
A: The Potency was inconclusive: 31.6 µM [inhibitor, partial curve, poor fit].

Q: For `O=C(Nc1ccccc1)NC1CCN(C(=O)c2ccc(-c3cncnc3)cc2)CC1`, which Potency is on record?
A: The Potency was “inactive”.

Q: With `COc1cccc(CN2CC[C@H]3C(=O)NCCCCCCN(Cc4ccncc4)[C@@H]3C2)c1` as the compound, how does the Potency read?
A: Its Potency is inconclusive: 56.2 µM [inhibitor, partial curve, poor fit].

Q: With `N#Cc1ccc(CN2CCCC3(Cc4ccccc4CNC3=O)C2)cc1` (centres undefined) as the compound, how does the Potency read?
A: The Potency was inconclusive: 100 µM [inhibitor, single point].

Q: For `CNC(=O)c1cc(C2CC2)nc2c1c(C1CCN(C(=O)c3ccc(Cl)nc3)C1)nn2C` (centres undefined), which Potency is on record?
A: Its Potency is “inactive”.

Q: With `Cc1cc2nc3n(c(=O)c2n1CC(=O)NC1CCc2ccccc21)CCCC3` (centres undefined) as the compound, how does the Potency read?
A: The Potency was inconclusive: 50.1 µM [inhibitor, partial curve, poor fit].

Q: For `CC1CCN(CC2CCCCCN2C(=O)CC2CCCC2)CC1` (centres undefined), which Potency is on record?
A: The Potency was “inactive”.

Q: Which Potency does the source give for `Cc1ccc(C2(O)CCN(C(=O)c3cccc(-c4ncc[nH]4)c3)CC2)nc1` here?
A: Its Potency is “inactive”.

Q: Which Potency does the source give for `CC1=C[C@@H](CNS(=O)(=O)c2ccccc2)[C@H](C(C)C)C[C@H]1CC(=O)O` here?
A: The Potency was “inactive”.

Q: With `Cc1ccc(N2CCN(C(=O)C3CCCN(c4cnc5nccnc5c4)C3)CC2)cc1` (centres undefined) as the compound, how does the Potency read?
A: Its Potency is inconclusive: 50.1 µM [inhibitor, partial curve, poor fit].

Q: With `COc1ccc(CN2CC3(CCN(C(=O)c4ccc(F)c(Cl)c4)CC3)C2=O)cc1` as the compound, how does the Potency read?
A: Its Potency is inconclusive: 44.7 µM [inhibitor, partial curve].

Q: With `CCC1=C(C(=O)OC)C(c2cccc(F)c2)N2C(CC(=O)NCc3ccco3)=CSC2=N1` (centres undefined) as the compound, how does the Potency read?
A: Its Potency is inconclusive: 35.5 µM [inhibitor, full curve, poor fit].

Q: With `CCn1c2c(c(=O)n1Cc1ccccc1)CCN(C(=O)c1cccnc1)C2` as the compound, how does the Potency read?
A: Its Potency is “inactive”.

Q: For `CCCc1nc(NCc2c(F)ccc(OC)c2F)c2cnn(C)c2n1`, which Potency is on record?
A: The Potency was inconclusive: 50.1 µM [inhibitor, partial curve, poor fit].

Q: Which Potency does the source give for `Cc1nn(-c2ccccc2)c2c1C(C)N(CC1CN([S+](=O)([O-])C(C)C)C1)C2=O` (centres undefined) here?
A: Its Potency is inconclusive: 44.7 µM [inhibitor, partial curve, poor fit].

Q: For `O=C(COc1ccccc1)N1CCN(C(=O)c2nnn3c2COC(c2ccc(Cl)cc2)C3)CC1` (centres undefined), which Potency is on record?
A: Its Potency is active: 25.1 µM.

Q: For `Fc1ccc2nc(CO[C@H]3CN(Cc4cnc5ccccc5c4)C[C@H]3F)[nH]c2c1`, which Potency is on record?
A: Its Potency is active: 70.8 µM.

Q: For `COCC1CN(S(=O)(=O)c2ccc(OC)c(Cl)c2)CC12CCNCC2` (centres undefined), which Potency is on record?
A: Its Potency is inconclusive: 89.1 µM [inhibitor, single point].

Q: For `O=C(NC1CCCC1)N1CCN(c2ccc3nnc(-c4ccccc4)n3n2)CC1`, which Potency is on record?
A: The Potency was “inactive”.

Q: For `Cc1ccc(-c2cc(C(=O)NCc3cccc(Cl)c3)nn3cnnc23)cc1`, which Potency is on record?
A: The Potency was “inactive”.
